Measured values as given in ChEMBL document CHEMBL1201862, “PubChem BioAssay data set” (2004).

Tested on: NCI-H322M
Experiment: DTP human tumour cell line panel, 48 h

SMILES	GI50
CCC(=O)OCN1C(=O)C=CC1=O	inactive: > 43.9 µM
NC(S)=Nc1cc(Cl)ccc1Cl	inactive: > 100 µM
Cn1ncc2c(NCCc3ccccc3)nc(Cl)nc21	inactive: 22.9 µM
O=C(O)c1ccc(CNCc2ccccc2)cc1	inactive: > 100 µM
Cc1ccc(/C=C2\NC(=S)NC2=O)cc1	inactive: > 100 µM
O=C(NNC(=O)c1ccccc1Cl)c1ccccc1O	inactive: 81.5 µM
CO[P@@]1(=O)O[C@@H](c2ccccc2)[C@H](O)[C@]1(O)c1ccccc1	inactive: 25.8 µM
CCCCNC(=O)Nc1c(C(N)=O)c2n(c1C(=O)OCC)CCCCC2	inactive: > 100 µM
COc1cc(-c2cc(=O)c3cc(C)c(C)c(C(=O)O)c3o2)cc(OC)c1OC	inactive: > 100 µM
COc1ccc([C@H]2CC(=O)N3CCCC3N2)cc1 (some centres undefined)	inactive: > 100 µM
COc1cc(C2C(C(=O)O)=C(CO)Oc3cc4c(cc32)OCO4)cc(OC)c1OC (centres undefined)	inactive: > 100 µM
COc1ccc(/C=C2\CN(C)CC3C2=NC(=S)NC3c2ccc(OC)cc2)cc1 (centres undefined)	inactive: 4.16 µM
CCOC(=O)c1nc2cc(C(F)(F)F)ccc2nc1Nc1ccc(Cl)c(Cl)c1	inactive: > 100 µM
OC(c1ccc(F)cc1)(c1ccc(F)cc1)C1CC1	inactive: 36.1 µM
CCOC(=O)N1CC2(C)C=CC1C(C(=O)OC)C2 (centres undefined)	inactive: > 100 µM
CC[C@H]1C=CCC[C@@]2(C[C@@H]3CC[C@@H]4[C@H](C(=O)OCCCCCCCCCCCCCCCC(=O)N(CCCN)CCCCN)[C@]5(CCC[C@@H](C)O5)NC(=[N+]34)N2)O1	active: 0.2 µM
CC(=O)C(=C(c1ccccc1)c1ccccc1)c1ccccc1	inactive: > 100 µM
COc1ccc2c3c1OC1C(=O)C=CC4(O)C(C2)NCC[C@@]314 (some centres undefined)	inactive: 7.62 µM
Cc1cc(OP2(=O)NCc3ccncc3O2)ccc1Cl (centres undefined)	inactive: > 100 µM
C=C(O)c1ccccc1C#Cc1ccccc1C(=O)OC	inactive: > 10 µM
COC(=O)Cc1c(C(=O)CC(C)(C)n2cnc(CCN3C(=O)CCC3=O)c2)[nH]c2ccccc12	inactive: > 100 µM
COc1cc2c(c(OC)c1OC)C(=O)[C@@H](O)[C@H]2NC(N)=O	inactive: > 100 µM
CCOP(C)(=O)/C(Cc1ccc(OC)c(OC)c1)=N\O (centres undefined)	inactive: > 100 µM

SMILES	GI50
CC(C)c1cc2c(O)c(c1)Cc1cc(C(C)C)cc(c1O)Cc1cc(C(C)C)cc(c1O)Cc1cc(C(C)C)cc(c1O)C2	inactive: > 100 µM
O=c1c2cc(Br)cc(Br)c2[nH]c(=S)n1-c1ccccc1	inactive: > 100 µM
OCC1OC(n2nc(-c3ccccc3)nc2-c2cnccn2)C(O)C(O)C1O (centres undefined)	inactive: > 100 µM
CCOC(=O)c1c(SCCO)n(-c2ccccc2)c(=S)n(-c2ccccc2)c1=O	inactive: > 100 µM
CN(C)C(=S)/N=c1\ss/c(=N\C(=S)N(C)C)n1-c1cccc(Cl)c1	inactive: > 100 µM
CC(C)NC(=O)OCc1c(COC(=O)NC(C)C)c(-c2cc[n+](COC(=O)C3CCCCC3)cc2)n2c1CCC2	inactive: > 100 µM
CC(=O)CC(N)=O	inactive: > 100 µM
Cc1c(NC(=S)N/N=C\C(=N/NC(=S)Nc2c(C)n(C)n(-c3ccccc3)c2=O)c2ccccc2)c(=O)n(-c2ccccc2)n1C	inactive: > 100 µM
[O-][n+]1c2cc(CBr)c(CBr)cc2[n+]([O-])c2c(O)cccc21	inactive: 11.4 µM
CCN(CC)c1ccc2c(c1)OC(=O)C(c1nnc(-c3ccc([N+](=O)[O-])cc3)o1)C2 (centres undefined)	inactive: 44.1 µM
CC(=O)Nc1ccc(NC(=O)CC(=O)Nc2ccc(NC(C)=O)cc2)cc1	inactive: > 100 µM
Cc1cc(NS(=O)(=O)c2ccc(/N=N/c3c(Nc4ccccc4)nn(-c4ccc(S(=O)(=O)Nc5ccncn5)cc4)c3C)cc2)no1	inactive: > 100 µM
Cc1cc(C)n(C2=NS(=O)(=O)c3ccccc3N2C)n1	inactive: > 100 µM
O=C(NC(CCCCN1C(=O)c2ccccc2C1=O)P(=O)(Oc1ccccc1)Oc1ccccc1)OCc1ccccc1 (centres undefined)	inactive: > 100 µM
COC(=O)CSc1nnc(-c2ccccc2)[nH]1	inactive: > 100 µM
Cc1ccc(S(=O)(=O)O/N=C2\CCC\C2=C/c2ccccc2)cc1	inactive: 14.1 µM
O=C1OC(Cc2ccccc2)(N2CCCC2=O)C1c1ccccc1 (centres undefined)	inactive: > 100 µM
COc1ccc(N[C@H](CSc2ccc(C)cc2)c2ccc(F)cc2)cc1	inactive: > 100 µM
O=C1OC([C@H](O)c2cccnc2)c2ccccc21 (some centres undefined)	inactive: > 10 µM
COc1c2c(c(OC)c3c(=O)cc(C/C(=N/NC(=O)C[n+]4ccccc4)C(=O)Nc4cc(C)ccc4C)oc13)OCO2	inactive: > 100 µM
C=C(C(=O)OC)c1cc2ccccc2n1S(=O)(=O)c1ccccc1	inactive: 13.5 µM
Cc1ccc(S(=O)(=O)N2CCN(S(=O)(=O)c3ccc(C)cc3)Cc3ccccc3C2)cc1	inactive: 49.5 µM
CC1=C(CC2C(=O)N(c3ccccc3)S(=O)(=O)NC2C)C(=O)N(c2ccccc2)S(=O)(=O)N1C (centres undefined)	inactive: > 100 µM

SMILES	GI50
CN1C(=O)C23CCCCC2CC1(c1ccccc1)S3 (centres undefined)	inactive: > 100 µM
CCCCCCCCCC(O)CC(=O)c1c(O)cccc1O (centres undefined)	inactive: 20.6 µM
CCOC(=O)CCC(NC(=O)Cc1ccc(Oc2nc3ccccc3nc2-c2cccs2)cc1)C(=O)OCC (centres undefined)	inactive: 19.3 µM
c1ccc2c(Cc3[nH]c4ccccc4c3Cc3c[nH]c4ccccc34)c[nH]c2c1	inactive: 3.65 µM
COCN1C(=O)[C@@H]2CCCN2C(=O)c2cc(OC)c(Cc3ccccc3)cc21	inactive: > 100 µM
CC1(C)COC(C23C4C5C2C2C3C4C52I)=N1 (centres undefined)	inactive: > 100 µM
CN(C)CC1CCC/C(=C\c2ccc(Cl)c(Cl)c2)C1=O (centres undefined)	inactive: 15.5 µM
CC(C)=CCCC1(C)C2COC(=O)C21 (centres undefined)	inactive: > 100 µM
CCCCCCCCCCCC(=O)OCC1OC(OC)C(NC(=O)N(CCCl)N=O)C(O)C1O (centres undefined)	inactive: 13.8 µM
CC1=CC(=O)N(n2c(Cc3ccc(Cl)cc3)n[nH]c2=O)C1=O	inactive: > 100 µM
Cc1cc(OCc2nnc3n2S(=O)(=O)c2ccccc2N3C)ccc1Cl	inactive: 70.6 µM
COC(=O)C(C(=O)C(=O)Nc1cccc(O)c1)c1nc2ccc(Cl)cc2nc1O (centres undefined)	inactive: > 100 µM
Cc1ccc(NC(=O)CC2C(=O)Nc3ccccc3S2(=O)=O)c(C)c1 (centres undefined)	inactive: 21.4 µM
CCC1(c2c(F)c(F)c(N)c(F)c2F)CCC(=O)NC1=O (centres undefined)	inactive: > 100 µM
CCOC(=O)c1nc2ccc(C(F)(F)F)cc2nc1Nc1ccc(OC)cc1	inactive: > 100 µM
C/C(=N\c1ccc(Cl)c(Cl)c1)c1ccncc1	inactive: > 100 µM
Cc1ccc(C(=O)/C=C2/Nc3ccc([N+](=O)[O-])cc3N/C2=C/C(=O)c2ccc(C)cc2)cc1	inactive: 97.3 µM
CN1/C(=C\N=O)C(C)(C)N(O)C1(C)C	inactive: > 100 µM
Cc1ccc(NC(=O)CC/C(CC(=O)c2ccc(F)cc2)=N\NC(=O)C(=O)NN)cc1C	inactive: > 100 µM
COC(=O)[C@@H]1COC(=O)N1	inactive: > 100 µM
NNC(=O)Nc1nc2ccc(NN)cc2[nH]1	inactive: 62.2 µM
Cc1cccc(NC(=O)C(=O)Cc2nc3ccccc3nc2O)c1C	inactive: > 100 µM
CCN(CCCl)c1cc(CN(C)C)cc(NC(=O)c2cc(C(=O)Nc3cc(CN(C)C)cc(N(CC)CCCl)c3)n(C)n2)c1	active: 0.794 µM

SMILES	GI50
C/C=C\C(CC(=O)NCCC1CN(S(=O)(=O)c2ccc(C)cc2)c2ccccc21)CC(=O)OC (centres undefined)	inactive: > 100 µM
CC1OC(O[C@H]2CC[C@]3(C)[C@H]4CC=C5[C@@H]6[C@@H](C)[C@H](C)CC[C@]6(C(=O)O)CC[C@@]5(C(=O)O)[C@]4(C)CC[C@H]3C2(C)C)C(O)C(O)C1O (some centres undefined)	inactive: > 75 µM
CC1(C)CC(=O)C(=CN2C(=O)CNC2=S)C(=O)C1	inactive: > 100 µM
Brc1ccc(/C=N/C23CC4CC(CC(C4)C2)C3)cc1	inactive: > 100 µM
CCOC(=O)c1c(N2CCOCC2)[nH]c(=O)c(C(c2ccc(Cl)c([N+](=O)[O-])c2)c2c(O)c(C(=O)OCC)c(N3CCOCC3)[nH]c2=O)c1O	inactive: > 100 µM
CNC(=S)N/N=C/c1cccc(C)n1	inactive: 52.4 µM
O=[N+]([O-])c1ccc(C2CC(c3ccccc3Cl)=Nc3ccccc3S2)cc1 (centres undefined)	inactive: 13.5 µM
C=CCOc1ccccc1/N=N/C(C#N)=N\Nc1ccccc1OCC=C	inactive: > 100 µM
CC12N=NN(c3ccc([N+](=O)[O-])cc3)C1(O)c1ccccc1C2=O (centres undefined)	inactive: > 100 µM
COc1cc(-c2c3c(cc4c2OCO4)[C@@H](Nc2ccc(-c4ccc(-c5ccc(N[C@@H]6c7cc8c(cc7C(c7cc(OC)c(O)c(OC)c7)[C@H]7C(=O)OC[C@H]67)OCO8)cc5)cc4)cc2)[C@H]2COC(=O)[C@@H]2C3)cc(OC)c1O (some centres undefined)	inactive: 2.76 µM
CCC12C=CCN3CC[C@]4(C(=C(C(=O)OC)[C@@H]1Nc1ncnc5c1ncn5C1OC(COC(C)=O)C(OC(C)=O)C1OC(C)=O)Nc1ccccc14)C32 (some centres undefined)	inactive: 4.06 µM
COC(=O)C1=C(O)C(C(=O)OC)[C@@]2(O)[C@@H](C(=O)OC)C(c3ccc(OC(=O)/C(=C/c4ccccc4)c4ccccc4)cc3)C[C@@H]1[C@@H]2C(=O)OC (some centres undefined)	inactive: > 100 µM
COc1cc(C[S+]2CCCC2)c(SC)cc1C[S+]1CCCC1	inactive: > 100 µM
C1CSC(=[N+]2CC[N+](=C3SCCS3)CC2)S1	inactive: 42.7 µM
c1ccc([P+](CCSCCSCC[P+](c2ccccc2)(c2ccccc2)c2ccccc2)(c2ccccc2)c2ccccc2)cc1	inactive: > 100 µM
Cc1cc(O)c(C(C)C)cc1C1(c2cc(C(C)C)c(O)cc2C)OC(=O)c2ccccc21	inactive: 3.58 µM
CSc1ccc2c(cc1=O)[C@@H](NC(=O)c1ccc(F)cc1)CCc1cc(O)c(O)c(O)c1-2	inactive: > 100 µM
c1ccc2c3c([nH]c2c1)C1c2[nH]c4ccccc4c2CCN1CC3	inactive: 2.58 µM
N#Cc1c(Cl)cccc1Oc1ccc(S(=O)(=O)N/C(=N\O)Nc2ccc(Cl)cc2)cc1	inactive: 15.5 µM
Cn1c2ccccc2n2c(=O)c(-c3ccc(Cl)cc3)nnc12	inactive: > 100 µM

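Assay format: 96-well plates, 48-hour exposure. GI50 is the concentration that inhibits growth by half.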 The source made the active and inactive calls. Cut-off read from the data, not from the text of the source: active = GI50 up to about 1.1 µM and inactive = higher.
